Measured values from PubChem BioAssay AID624417 (National Center for Advancing Translational Sciences (NCATS), 2012).
Among all 410,000 compounds or so, about 6,400 (1.6%) were called active. The shares of active, inactive and inconclusive entries below differ from those in the screen. Calls follow the shape of the dose curve; as a rule, active = well fitted inhibition curve with a large enough effect; inconclusive = small, poorly fitted or top-dose-only effect; inactive = no such curve, though single readings can be large or run the other way. No potency is given beside an inconclusive call; the fits are too rough.

molecular target: Glucagon-like peptide 1 receptor (Homo sapiens) (UniProt P43220); test: qHTS of GLP-1 Receptor Inverse Agonists (Inhibition Mode); settings: HEK293 GLP-1R CRE-luciferase, luminescence, 24 h, GLP-1R form is constitutively active; activity change, negative = inhibition: at 38.3 µM (top of the series) unless noted; also: nearly all actives have a fitted effect of over 55% in size
UniProt P43220, sequence (P43220 whole entry, looked up): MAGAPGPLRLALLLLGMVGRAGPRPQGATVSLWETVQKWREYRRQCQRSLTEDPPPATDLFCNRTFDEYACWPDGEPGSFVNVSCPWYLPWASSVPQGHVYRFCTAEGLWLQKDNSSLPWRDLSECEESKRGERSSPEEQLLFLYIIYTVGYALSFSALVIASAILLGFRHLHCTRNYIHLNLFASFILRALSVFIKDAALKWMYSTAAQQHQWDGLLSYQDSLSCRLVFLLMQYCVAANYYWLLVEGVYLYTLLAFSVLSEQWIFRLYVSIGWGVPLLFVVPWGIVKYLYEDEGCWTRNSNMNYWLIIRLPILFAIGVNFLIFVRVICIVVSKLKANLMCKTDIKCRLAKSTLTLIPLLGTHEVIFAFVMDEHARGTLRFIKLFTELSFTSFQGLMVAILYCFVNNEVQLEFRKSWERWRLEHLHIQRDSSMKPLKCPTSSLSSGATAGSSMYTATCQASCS
In short: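 Using stably transfected HEK293 (constitutively active GLP-1R, cAMP-luciferase reporter), compounds were incubated 24 hr and luciferase measured by luminescence.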
% is scaled to controls: 0 for no effect and ±100 for the full control effect; potency is read from the fitted curve at half-maximal effect; tags tell the direction and shape of the fitted curve.

Q: How did the Potency turn out when `COc1ccc(C(=O)OCC(=O)c2ccc(C3CCCCC3)cc2)cc1` was run?
A: inconclusive [inhibitor, partial curve, poor fit]

Q: How did the Potency turn out when `Cc1cccc(C)c1-n1c(SCC(=O)N2CC(=O)Nc3ccccc32)nc2ccccc2c1=O` was run?
A: inconclusive [inhibitor, single point]

Q: With `COc1ccc([N+](=O)[O-])c(S(=O)(=O)c2ccccc2)n1` as the molecule, how does the Potency read?
A: inconclusive [inhibitor, single point]

Q: `CC(C)NS(=O)(=O)c1ccc(OCC(=O)Nc2cccc3ccccc23)cc1` was tested. Which Potency did it give?
A: inactive

Q: Which Potency does the source give for `O=C(/C=C\Nc1ccccn1)c1ccccc1` here?
A: inconclusive [inhibitor, partial curve, poor fit]

Q: For `CCN(C(=O)Cc1ccc(Br)cc1)C1CCCCC1`, which Potency is on record?
A: inconclusive [inhibitor, partial curve, poor fit]

Q: With `CCCCNc1c(-c2ccc(OC)c(Sc3ccc(OC)cc3)c2)nc2ccc(Cl)cn12` as the molecule, how does the Potency read?
A: inconclusive [inhibitor, partial curve, poor fit]

Q: How did the Potency turn out when `O=C(CSc1cc(Cl)ccc1Cl)NCCN1C(=O)CSC1=O` was run?
A: inconclusive [inhibitor, single point]

Q: With `Cc1cccn2c(=O)nc(SCC(=O)N3CCC(Cc4ccccc4)CC3)nc12` as the molecule, how does the Potency read?
A: inactive

Q: How did the Potency turn out when `COc1ccc(C(=O)Nc2ccc3oc(Cc4ccc(Cl)cc4)nc3c2)cc1OC` was run?
A: inconclusive [inhibitor, single point]

Q: With `COc1cc2c(cc1OC)C(=S)NC1(CCCC1)C2` as the molecule, how does the Potency read?
A: inconclusive [inhibitor, single point]

Q: With `C=CCn1c(Sc2ncc([N+](=O)[O-])s2)n[nH]c1=O` as the molecule, how does the Potency read?
A: inconclusive [inhibitor, single point]

Q: With `CC(C)NS(=O)(=O)c1ccc(CCC(=O)Nc2cc(Cl)ccc2Oc2ccccc2)cc1` as the molecule, how does the Potency read?
A: inconclusive [inhibitor, single point]

Q: `Nc1nonc1C(=O)N/N=C/c1ccc(-c2ccc(Cl)c(C(=O)O)c2)o1` was tested. Which activity change, negative = inhibition did it give?
A: inactive: 8.71% [at 7.66 µM]

Q: `CC(C)c1ccccc1OCCNC(=S)NC(=O)c1cccnc1` was tested. Which Potency did it give?
A: inconclusive [inhibitor, partial curve, poor fit]

Q: `Cc1ccc(NC2CCCCC2NS(=O)(=O)c2ccccc2)c(C)c1` (centres undefined) was tested. Which Potency did it give?
A: inconclusive [inhibitor, partial curve, poor fit]

Q: `CN(C)S(=O)(=O)c1ccc(NC(=O)CSc2nnnn2C)cc1` was tested. Which Potency did it give?
A: inactive

Q: With `CCOc1cc(Br)c(COc2ccc(C)nc2[N+](=O)[O-])cc1OCC` as the molecule, how does the Potency read?
A: inconclusive [inhibitor, single point]

Q: Which Potency does the source give for `CC1CCCCC1NC(=O)CO/N=C/c1ccccc1OC(F)F` (centres undefined) here?
A: active: 10 µM

Q: Which Potency does the source give for `O=C(Nc1ccccc1)c1cc2ccccc2s1` here?
A: inconclusive [inhibitor, single point]

Q: How did the Potency turn out when `CC1(C)Cc2c(sc3ncnc(NNC(=S)NCc4ccccc4)c23)CO1` was run?
A: inconclusive [inhibitor, full curve, poor fit]

Q: Which Potency does the source give for `Cc1cc(C)c2c(CN3CCN(CCO)CC3)cc(=O)oc2c1` here?
A: inconclusive [inhibitor, single point]

Q: How did the Potency turn out when `NC(=NCCc1c[nH]c2ccccc12)NS(=O)(=O)c1ccc2ccccc2c1` was run?
A: inconclusive [inhibitor, single point]

Q: How did the Potency turn out when `Cc1ccc(-n2ncc(C(=O)NCCN3CCc4ccccc4C3)c2C2CCNCC2)cc1C` was run?
A: inconclusive [inhibitor, partial curve, poor fit]

Q: For `CCN(CC)CCC=C(c1cccs1)c1cccs1`, which Potency is on record?
A: inconclusive [inhibitor, partial curve, poor fit]

Q: `CC1CC(C)CN(C(=O)COc2ccc([N+](=O)[O-])cc2Cl)C1` (centres undefined) was tested. Which Potency did it give?
A: inconclusive [inhibitor, partial curve, poor fit]

Q: `N/C(=N/O)c1nc(N2CCCC2)nc(N(c2ccccc2)c2ccccc2)n1` was tested. Which Potency did it give?
A: inconclusive [inhibitor, full curve, poor fit]

Q: `CN(C(=O)COC(=O)CCc1c[nH]c2ccccc12)c1ccccc1` was tested. Which Potency did it give?
A: inconclusive [inhibitor, single point]

Q: `C1=C(CCNc2ncnc3c2[nH]c2ccccc23)CCCC1` was tested. Which Potency did it give?
A: active: 4.47 µM

Q: `COc1ccc(-n2c(=O)c3c4c(sc3n3c(SC(C)C)nnc23)COC(C(C)C)C4)cc1` (centres undefined) was tested. Which Potency did it give?
A: inactive

Q: For `CCN(CC)CCSc1nc2ccccc2c(=S)n1-c1ccccc1`, which Potency is on record?
A: inconclusive [inhibitor, single point]

Q: For `Brc1ccc(-c2nnc(-c3ccccc3)c(N3CCSCC3)n2)cc1`, which Potency is on record?
A: active: 8.91 µM

Q: How did the Potency turn out when `O=C(CSc1ccc(Br)cc1)NCC(c1ccco1)N1CCCCC1` (centres undefined) was run?
A: inconclusive [inhibitor, partial curve, poor fit]

Q: For `CC1Cc2ccccc2N1S(=O)(=O)c1cccc(C(=O)OCC(=O)N2CCOCC2)c1` (centres undefined), which Potency is on record?
A: inactive

Q: How did the Potency turn out when `Cc1ccc(NC(=O)c2ccc(S(=O)(=O)N3CCCCCC3)cc2)nc1` was run?
A: inconclusive [inhibitor, single point]

Q: `CCCc1ccc(C(=O)COC(=O)CN2C(=O)NC3(CCCCC3C)C2=O)cc1` (centres undefined) was tested. Which Potency did it give?
A: inconclusive [inhibitor, single point]

Q: How did the Potency turn out when `CCCCOc1ccc(C(=O)NCC(=O)N2CC(C)OC(C)C2)cc1` (centres undefined) was run?
A: inactive

Q: With `O=C(CN(C(=O)c1ccco1)c1cccc(F)c1)NCc1ccc(F)cc1` as the molecule, how does the Potency read?
A: inconclusive [inhibitor, partial curve, poor fit]

Q: Which Potency does the source give for `CCOc1ccc(-c2csc(-c3c(N)c(C(=O)c4ccc5c(c4)OCO5)n4ccccc34)n2)cc1` here?
A: inactive

Q: Which Potency does the source give for `N#Cc1ccccc1S(=O)(=O)N1CCN(c2ccc(S(=O)(=O)N3CCOCC3)cn2)CC1` here?
A: inactive

Q: With `O=C(NCc1nc2ccccc2[nH]1)C1=C[C@H](c2ccc(C(F)(F)F)cc2)C[C@H](OCCCCO)O1` as the molecule, how does the Potency read?
A: inconclusive [inhibitor, single point]

Q: For `COc1cc2c(cc1NC(=O)c1cccc(F)c1)CCCC2`, which Potency is on record?
A: inconclusive [inhibitor, single point]

Q: Which Potency does the source give for `CCCC(=O)N1CCN(c2ccc(NC(=O)C(C)(C)C)cc2Cl)CC1` here?
A: inconclusive [inhibitor, partial curve, poor fit]

Q: Which Potency does the source give for `C/C(=N\N1CCN(C)CC1)c1ccc(OC(F)F)cc1` here?
A: inconclusive [inhibitor, partial curve, poor fit]

Q: For `COC(=O)c1ccccc1NCc1cc(=O)oc2cc(O)c(O)cc12`, which Potency is on record?
A: inconclusive [inhibitor, single point]

Q: For `CC1(C)Cc2c(C#N)c(NCc3ccco3)nc(-c3ccco3)c2CO1`, which Potency is on record?
A: inactive

Q: Which Potency does the source give for `O=C(N/N=C/c1cccc2ccccc12)c1n[nH]c2c1CCCC2` here?
A: active: 1.12 µM

Q: For `Cc1cc2ccccn2c1C(=O)c1ccc(NN)c([N+](=O)[O-])c1`, which Potency is on record?
A: inconclusive [inhibitor, partial curve, poor fit]

Q: How did the Potency turn out when `COc1ccc(-c2cc(C(F)(F)F)nc(N3CCN(Cc4ccccc4)CC3)n2)cc1OC` was run?
A: inconclusive [inhibitor, single point]

Q: For `COc1ccc(Cl)cc1NC(=S)NCCc1ccc(F)cc1`, which Potency is on record?
A: inconclusive [inhibitor, partial curve, poor fit]

Q: Which Potency does the source give for `Cc1cc(OCc2cc(C(=O)NC(C)c3cnn(C)c3)no2)cc(C)c1Cl` (centres undefined) here?
A: inconclusive [inhibitor, single point]

Q: With `CCc1nc(NCCc2ccccn2)c2nnn(Cc3ccccc3F)c2n1` as the molecule, how does the Potency read?
A: inconclusive [inhibitor, single point]

Q: For `COc1cc(-c2noc(-c3ccc(NCCc4ccccc4)c([N+](=O)[O-])c3)n2)cc(OC)c1OC`, which Potency is on record?
A: inactive

Q: Which Potency does the source give for `Cc1c(Cl)ccc(S(=O)(=O)NCCCn2ccnc2)c1Cl` here?
A: inconclusive [inhibitor, partial curve, poor fit]

Q: For `CNC(=O)/C=C1\NC(C)(C)Cc2c1ccc1ccccc21`, which Potency is on record?
A: inconclusive [inhibitor, single point]

Q: With `COc1cc(/C=C2/NC(=O)N(Cc3ccccc3F)C2=O)cc(OC)c1OC` as the molecule, how does the Potency read?
A: inconclusive [inhibitor, single point]

Q: With `CN(c1ccccc1)S(=O)(=O)c1ccc(C(=O)NCCc2ccccc2)cc1` as the molecule, how does the Potency read?
A: inconclusive [inhibitor, partial curve, poor fit]

Q: For `COC(=O)/C=C1\S/C(=N/N=C/c2ccccc2)NC1=O`, which Potency is on record?
A: inactive

Q: With `COc1ccc2c(c1)OC[C@H]1[C@H]2N2C(=O)c3cc(F)ccc3NC(=O)[C@@]2(C)[C@H]1c1ccccc1` as the molecule, how does the Potency read?
A: inconclusive [inhibitor, single point]

Q: For `CCCN(CCC)CC(O)Cn1cc(/C=C/C(=O)c2cccs2)c2ccccc21` (centres undefined), which Potency is on record?
A: inconclusive [inhibitor, partial curve, poor fit]

Q: Which Potency does the source give for `CN(Cc1c(C(=O)N/N=C/c2cccc(Cl)c2)nnn1-c1nonc1N)c1ccccc1` here?
A: inconclusive [inhibitor, single point]

Q: Which Potency does the source give for `Cc1cccc(NC(=O)c2ccc(-c3ccccc3[N+](=O)[O-])o2)c1` here?
A: inconclusive [inhibitor, single point]

Q: With `CC(NC(=O)Cn1cccc1C(=O)c1ccccc1)c1ccccc1` (centres undefined) as the molecule, how does the Potency read?
A: inconclusive [inhibitor, partial curve]

Q: How did the Potency turn out when `Cc1nn(C)c(Oc2ccccc2)c1CCNS(=O)(=O)c1ccccc1` was run?
A: inconclusive [inhibitor, single point]
